Experimental data published in the supplement of paper PMC11417369.
± gives the standard deviation of the averaged measurements. The list shows a part of the results.

tested on: PfAP2-EXP AP2 domain (GST-tagged); test: gcPBM binding intensity (ln(normalized median fluorescence intensity)); higher = stronger DNA binding
Procedure, shortened: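 GST-fused DNA-binding domains of P. falciparum, expressed in E. coli, were applied at about 25 μg on average for 1 h to an Agilent 4 × 180k array of primer-extended double-stranded 36-bp intergenic genomic probes and negative controls. Binding intensity is the highest Masliner-normalised natural-log median intensity across replicate spots of either probe orientation, measured with Alexa488 anti-GST antibody and a 488 nm scan.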

Row | Sequence | gcPBM binding intensity (ln)
1 | GGAAGCTAATTACACACATGCATATTTTTTTTTCAA [TGCATGCA_site548] | 8.79 ± 0.35
2 | ATGGGACAGATATATACACACATATAAATATAAATA [CACACA_site6684] | 8.74 ± 0.44
3 | TATGTTAAAAAAAAATGTACATATGTTTTTGTTAAA [XGTACX_site4754] | 8.36 ± 0.32
4 | TTTCCCCCATATAATGAACACACACCCTCCTCATAA [CACACA_site8110] | 9.68 ± 0.38
5 | ATACATTCAAAATATACACACATATATATATAATAT [CACACA_site950] | 8.49 ± 0.39
6 | AAATGAATAATGATATACAAACAAATCATGTGTTAA [XGTACX_negctrl_site150] | 8.37 ± 0.33
7 | GACCCATTATTTTATTGTACTTTTATTATAACGTGA [XGTACX_site156] | 8.89 ± 0.35
8 | ATGTGTGTATACATCAATTATATATATATTATGTAT [GTGCAC_negctrl_site720] | 8.6 ± 0.33
9 | AAAATAAAAATAACAACACACATATACTATAATATT [CACACA_site2769] | 8.7 ± 0.46
10 | CATTTCATTTCTTAATGTACTTTATTCCACCACATA [XGTACX_site5943] | 8.76 ± 0.42
11 | TTTATTATTATATTATTTTAATTTTTCTTTAGTACA [GTGCAC_negctrl_site392] | 8.29 ± 0.32
12 | AAATTAAATAAATTTACACACTAAAAATTACATATA [CACACA_site1054] | 8.22 ± 0.34
13 | ATAAATATATGAAGTTGTACAAATAATTAACATTAT [XGTACX_site5740] | 8.73 ± 0.42
14 | TACCATGTTCAAATTACACACATATAATCTAATATA [CACACA_site2008] | 8.4 ± 0.43
15 | ATTTTTTTTAATTTGTACAAATTTTGTTCACAATTT [CACACA_negctrl_site1301] | 8.91 ± 0.57
16 | CGTAAACGATATAAATGTACGAATATCTATATATTA [XGTACX_site8116] | 8.37 ± 0.45
17 | TATATATTGCCCTTCACACACACACCGATATATATA [CACACA_site5390] | 9.11 ± 0.3
18 | ATATATATATATATTTGTACTTACATTTTTATTTAT [XGTACX_site4551] | 9.9 ± 0.47
19 | AAAAATATAACCGTTACACACAAAATAATATGAGAA [CACACA_site3773] | 8.72 ± 0.43
20 | TATTTCATCTTTTAAGAAGGTACCCATATGTCATAT [GTGCAC_negctrl_site403] | 8.63 ± 0.42
21 | ATAATAAGGTTAAGCACACATATTACATATATAACT [CACACA_site3356] | 8.48 ± 0.31
22 | GAACGATATATTATATGTACATATATATATATATAT [XGTACX_site394] | 10 ± 0.53
23 | TCGTTTCATAATATTGTGCACATATATATTTACAAT | 9.41 ± 0.23

Row | Sequence | gcPBM binding intensity (ln)
24 | TGCCCTTTGGTTATAACACACATGCACCCGTAAATA [CACACA_site3842] | 9.16 ± 0.13
25 | TAATAAAAAGTTGAGGTGCATATAGAGTTCTTCTTT [GTGCAC_site9508] | 8.56 ± 0.12
26 | ATATTTTATATAATAGTGCAAATAATATTAAATAAT | 8.66 ± 0.21
27 | ATTATAATATTTAATTGTACTTGTATTTATTCCAAA [XGTACX_site6417] | 8.4 ± 0.38
28 | AAAAAAAATATATTACAAAACTTAGGATCCTAATAT [CACACA_negctrl_site470] | 8.48 ± 0.39
29 | AATAAATATATTAAAAGTACACAAATATTATTTAAT [XGTACX_site2482] | 8.57 ± 0.35
30 | AAGATTAAACATTGCACACAAAAACATATTTTCTAT [CACACA_site530] | 8.38 ± 0.31
31 | CACATAAAATAAGGTGCATGCAAACGAGAAAATAAA [TGCATGCA_site75] | 10.5 ± 0.11
32 | ATATATATATAATAATGTACTTATAATAGATGTGTA [XGTACX_site4677] | 9.44 ± 0.26
33 | AATATATAAGCTGTTCTATTCAAGAATTATATCTTA [CACACA_negctrl_site270] | 8.15 ± 0.5
34 | AGAAGATTAAACATTGCACACAAAAACATATTTTCT [CACACA_site8072] | 8.32 ± 0.4
35 | CAAAGGAAACCTATCTGTACACATATTGGGGGAAAA [XGTACX_site3502] | 9.31 ± 0.35
36 | GATTATTTCTAAAAAGTGCATATTTAAAAATCTCCT | 8.63 ± 0.057
37 | ATTGTTTTGTAATATGAAAAAATTGTGTAATGTGTC [CACACA_negctrl_site1510] | 8.73 ± 0.31
38 | TATTATATTATACATACACACCCATATAATATGTTT [CACACA_site8191] | 8.81 ± 0.33
39 | ATTTATATGAAAATATGTACTTATATAAATTTATTT [XGTACX_site53] | 8.35 ± 0.37
40 | AAATTCGTAATAATGTGTACATAACTATACATAATT [XGTACX_site1717] | 8.6 ± 0.33
41 | AAAAAATAGAATATGGGTACTAAAAAGATACAAACA [XGTACX_site4464] | 8.86 ± 0.49
42 | CGCAACGTGAAAATACGTACACATACATTTTTATAT [XGTACX_site330] | 8.39 ± 0.35
43 | AAATATTATGTACGCACACACATTTTTGATATATAA [CACACA_site7755] | 8.64 ± 0.28
44 | TATTCCTATATACAGCGTACAAAAAATAATATGTAT [XGTACX_site8112] | 8.69 ± 0.38
45 | TATGGAACACACCTTAATATGTGATAAAATATGATA [GTGCAC_negctrl_site718] | 8.55 ± 0.37
46 | GTTATTAAATAATTCACACACATATATATATATATA [CACACA_site2260] | 10.3 ± 0.45

Row | Sequence | gcPBM binding intensity (ln)
47 | TTAATACATACATTCACACACACTAAATGTATATTT [CACACA_site4105] | 8.55 ± 0.42
48 | GGGGGAAGGTTGAAGGTGCTTGATGGAGAAAAATAT | 9.81 ± 0.35
49 | TAATCGTTTTATAAATGTACAAAATTGTTATGTTAT [XGTACX_site5147] | 8.39 ± 0.4
50 | AATAGGATATGGTACATTTTTTGTATACTTTTTGTT [CACACA_negctrl_site1804] | 8.26 ± 0.43
51 | ATAAATTCTATGTATACACACATATATAATATATAT [CACACA_site2689] | 8.73 ± 0.57
52 | AAACAAGTAATTGTTATTATTATTATATTATTATTA [CACACA_negctrl_site402] | 7.86 ± 0.33
53 | TCTTATATAACGAAAGTAAAATAATATGCTAAGCAT [CACACA_negctrl_site668] | 8.35 ± 0.43
54 | CTAAAAAGAGAAGTGTGTCCTCAAATTAATATAATT [XGTACX_site1057] | 8.34 ± 0.83
55 | TTTTTTTTTTTTGAAGTGCATGTTACGATGAACAAA [GTGCAC_site9451] | 8.53 ± 0.28
56 | GAAAAAAAAAAAAATACACACAAATTGGTATAGAAT [CACACA_site380] | 8.53 ± 0.47
57 | TATATAAAAATATACACACACAAATGTATTTATATA [CACACA_site4284] | 8.02 ± 0.35
58 | AATGAATATTAAAGGAGTACACATAATAAGTAAGAA [XGTACX_site7354] | 9.21 ± 0.4
59 | AAAATAGAGTTGAATGCACACATACAAATTTTTAGG [CACACA_site9188] | 8.46 ± 0.26
60 | TTATTAAATTCTTTATTTAGCATATACAATAAAAGA [CACACA_negctrl_site1420] | 8 ± 0.44
61 | ATAAATAATTTATTCACACATACAAAAGTTTACAAA [CACACA_site5666] | 8.47 ± 0.47
62 | TATTTTATTTCAAATCTTAATAATTGTAATTCTTCA [XGTACX_negctrl_site442] | 8.1 ± 0.63
63 | TGTGTAATACATAATACACACATGTATATGTCGCAT [CACACA_site4757] | 8.49 ± 0.49
64 | TTTTAATTAGAAATCATACACACATATATATATATA [CACACA_site174] | 10 ± 0.26
65 | ATTTTTAAAATAAATACATGCATATATTTATATGTT [TGCATGCA_site394] | 8.54 ± 0.37
66 | AAAAAAAAAGAGGCGTGTACATATATAATTTAAATT [XGTACX_site6827] | 8.81 ± 0.44
67 | ATAATAGAAACAAACAGTACACATACCTAAAAGGAA [XGTACX_site8647] | 8.73 ± 0.6
68 | TGTTCTAATATTTGTTGTACATTTACATTTCTCTCT [XGTACX_site2585] | 8.87 ± 0.45
69 | TTATTAAAGTATAACTGTACATGCGAGTAAAAGAAT [XGTACX_site7388] | 9.44 ± 0.48

Row | Sequence | gcPBM binding intensity (ln)
70 | CATAAAATTGTATTTTGTACACATTTTGTATACATT [XGTACX_site5705] | 8.39 ± 0.28
71 | TATATATAGAAACACACACACATATATATATATATT [CACACA_site4115] | 8.7 ± 0.37
72 | ATTTACATAAACGTCTGTACTAATATACAATTTTCT [XGTACX_site1700] | 8.61 ± 0.38
73 | TATTATATATTTAATAGTACATATAAAATAATAAGG [XGTACX_site4823] | 8.57 ± 0.085
74 | TGGTTTATTTATTAAGTGCATAAATGCAATATATAT | 8.79 ± 0.18
75 | TACTATAACCCACATACACACAAAAAAAAAAAAAAA [CACACA_site4454] | 8.14 ± 0.54
76 | TATACAGATGGACACACACACATAAATAAATATATA [CACACA_site4863] | 8.78 ± 0.61
77 | TTTATTTTTAACAGTGCACACATAACTTAATTATAT [CACACA_site8681] | 9.005 ± 0.021
78 | ATATGAGTATAAAAATGTACGGAGCAACTAAATATA [XGTACX_site620] | 9.2 ± 0.4
79 | AAATAAAACAGACACACACACACATACACAAAAAAA [CACACA_site7753] | 8.71 ± 0.51
80 | TATAAATATGTATATGCATGTGGAATATATAATTAA [TGCATGCA_site226] | 8.9 ± 0.23
81 | ATTACAACCACATTGACATGCAAATGTAGAGGGGGA [TGCATGCA_site694] | 9.81 ± 0.49
82 | TGTCACCTATTTTTTTGTACGTATGTCCATTTTTTT [XGTACX_site4368] | 8.94 ± 0.47
83 | AAAAAATATAGATGCACACACAAAAAAACAAATTAA [CACACA_site6718] | 8.69 ± 0.54
84 | TTAACTTCTTTAAAATGTACATATATTAAATAATAA [XGTACX_site3391] | 8.3 ± 0.35
85 | TTTATGTAATATACATGTACAGAATATAAAATATAT [XGTACX_site6906] | 8.62 ± 0.32
86 | AGATTTTGAAATTATAAAAAAATTTCACTTCATTTA [CACACA_negctrl_site888] | 7.96 ± 0.37
87 | ATATATATATATCAGAGTACATTCTTTAAAATATAT [XGTACX_site5915] | 9.98 ± 0.085
88 | GTATTATTATTTTATGCATGTACATTGAATTATATT [TGCATGCA_site34] | 9.19 ± 0.28
89 | TATTCTTACATCACCTCACACATTTAATATTCCTTA [CACACA_site4693] | 8.8 ± 0.45
